In all, about 110,000 compounds were measured (“z-score”: median about -0.1, highest 2% from about 2 on). Some of the results follow.
Each compound was assayed against Metabotropic glutamate receptor 8 (Rattus norvegicus) (UniProt P70579) (assay: rat mGluR8 modulators via GIRK flux, primary screen, cell-based, thallium flux, HTS (AID 488969)). Details: HEK293 rat mGluR8, GIRK (G protein-gated inwardly rectifying potassium channel) thallium flux, FluoZin2; at 10 µM; stronger effect = higher value; submaximal glutamate (EC20) added with thallium.
Chain of UniProt P70579 (P70579 whole entry, looked up): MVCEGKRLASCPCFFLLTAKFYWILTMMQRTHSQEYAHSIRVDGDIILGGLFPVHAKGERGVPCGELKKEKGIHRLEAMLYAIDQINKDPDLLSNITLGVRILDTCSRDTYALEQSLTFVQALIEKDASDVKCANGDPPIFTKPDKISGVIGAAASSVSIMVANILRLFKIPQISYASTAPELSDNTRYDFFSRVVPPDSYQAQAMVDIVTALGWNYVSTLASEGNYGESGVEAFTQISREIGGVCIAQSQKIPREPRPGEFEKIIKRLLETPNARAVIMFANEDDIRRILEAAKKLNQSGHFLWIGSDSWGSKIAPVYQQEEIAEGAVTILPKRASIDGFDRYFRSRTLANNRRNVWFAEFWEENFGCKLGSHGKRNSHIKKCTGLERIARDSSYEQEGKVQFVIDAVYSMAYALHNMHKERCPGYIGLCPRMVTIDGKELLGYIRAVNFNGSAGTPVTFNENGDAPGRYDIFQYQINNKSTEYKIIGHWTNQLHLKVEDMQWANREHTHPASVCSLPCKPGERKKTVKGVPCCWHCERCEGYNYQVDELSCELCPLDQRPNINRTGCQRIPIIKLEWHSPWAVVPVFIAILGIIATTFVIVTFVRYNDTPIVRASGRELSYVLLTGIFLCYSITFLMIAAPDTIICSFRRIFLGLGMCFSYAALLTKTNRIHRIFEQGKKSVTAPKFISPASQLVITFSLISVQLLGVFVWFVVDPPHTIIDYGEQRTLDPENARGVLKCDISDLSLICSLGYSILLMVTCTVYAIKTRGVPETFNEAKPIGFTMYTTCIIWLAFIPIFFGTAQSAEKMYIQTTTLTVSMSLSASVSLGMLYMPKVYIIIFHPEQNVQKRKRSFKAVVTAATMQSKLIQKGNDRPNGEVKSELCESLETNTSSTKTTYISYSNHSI
`CCN(CC)c1ccc(C(=O)OCC(=O)NC2CCCCC2C)cc1` (stereo unspecified) showed a z-score of -0.113.
`Cc1ccc(/C(N)=N/OC(=O)c2ccc(Cl)cc2Cl)cc1` showed a z-score of -0.0741.
Work on `CCOc1ccc2nc(C(C)O)[nH]c2c1` (stereo unspecified) yielded a z-score of 0.172.
Work on `O=C(c1cnccn1)N1CCN(C/C=C/c2ccccc2)CC1` yielded a z-score of 0.432.
With `Cc1cccc(-n2c(O)c(C=Nc3ccccc3N)c(=O)[nH]c2=O)c1` the z-score was -0.0327.
`CN1CCN(c2ccccc2NC(=O)C(Cc2ccccc2)n2cccc2)CC1` (stereo unspecified) was tested, and the z-score was -1.65.
Compound `CC1=CCC2C(=O)N(c3ccc(C)c(Br)c3)C(=O)C2C1` (stereo unspecified) has a z-score of 0.804.
In the case of `Cc1ccc(-n2nnnc2SC(C)C(=O)NCC(=O)Nc2ccc(F)c(F)c2F)c(C)c1` (stereo unspecified), the z-score is reported as -0.287.
Work on `O=C(CSCC(=O)OCC(=O)c1ccc(Br)cc1)Nc1cccc2ccccc12` yielded a z-score of -0.251.
For `CCCCN1C(=O)c2ccc(C(=O)NC3=NCCS3)cc2C1=O`, the z-score was -0.236.
With `Cc1ccccc1NC(=O)C(C)O/N=C/c1cccc([N+](=O)[O-])c1` (stereo unspecified) the z-score was -0.426.
With `O=C(CSc1nnc(CNC(=O)c2ccccc2F)o1)NCCc1ccccc1` the z-score was -0.163.
With `CCOC(=O)C(Oc1ccc(=O)[nH]n1)C(C)=O` (stereo unspecified) the z-score was -0.00949.
Work on `COC(=O)c1ccc(C)c(NC(=O)CCc2cc(OC)c(OC)c(OC)c2)c1` yielded a z-score of -0.0799.
Work on `Cc1ccccc1NCCNc1ccccc1C` yielded a z-score of -0.531.
For `CCOC(=O)/C(=C/c1c[nH]c2ccccc12)NC(C)=O`, the z-score was -0.229.
Work on `Cc1ccc(C(=O)CCC(=O)Nc2cccc(C(F)(F)F)c2)cc1` yielded a z-score of 1.26.
`Cc1cc(N2CCOCC2)n2ncc(-c3ccccc3)c2n1` showed a z-score of -0.401.
`CCOC(=O)c1ccc(NC(=O)CN2C(=O)CNC2=O)cc1` was tested, and the z-score was -0.263.
In the case of `CCOc1ccccc1N(CC(=O)OC)S(C)(=O)=O`, the z-score is reported as -0.0628.
In the case of `Nn1c(SCC(=O)Nc2ccc3c(c2)OCO3)nnc1-c1cccc(Cl)c1`, the z-score is reported as -0.0648.
Compound `Cc1nn(-c2ccc(Cl)cc2)c2sc(C(=O)N3CCN(c4ccccn4)CC3)cc12` has a z-score of 0.648.
Work on `CCOc1cc(NC2CS(=O)(=O)CC2O)c(OCC)cc1NC(=O)c1ccccc1` (stereo unspecified) yielded a z-score of -0.294.
Work on `CC(C)CCNC(=O)CN(C(=O)CCC(=O)Nc1ccccn1)c1ccc2c(c1)OCCO2` yielded a z-score of -0.262.
`CCOc1ccc(CN(C)CC(=O)Nc2ccc([N+](=O)[O-])cc2Cl)cc1` gave a z-score of 0.327.
`Cc1ccc(C(=O)c2cnc3ccccc3c2-c2ccccc2)cc1` gave a z-score of -1.64.
`COc1cc(-c2noc(-c3cccs3)n2)cc(OC)c1OC` was tested, and the z-score was -0.391.
With `CC1(C)CC(N2CCN(c3ccccc3)CC2)=CC(=[N+]2CCCC2)C1` the z-score was 0.22.
`C/C(=C\C(=O)c1ccccc1)Nc1ccc(O)cc1` gave a z-score of -0.205.
Compound `O=C(CCC1CCCCC1)NCc1ccc(F)cc1` has a z-score of -0.221.
For `Cc1cc2[nH]ncc2cc1NC(=S)NC(=O)c1ccccc1`, the z-score was 0.0234.
